Data: PubChem BioAssay (NCI)
Values joined by “and” are separate entries in the source; they are usually repeats but may differ in a detail not shown here. Equal values may be shown once.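 Tested at 5 concentrations; 48 h exposure; 96-well plates; endpoints linearly interpolated, else capped at highest concentration. The concentration for 50% growth inhibition is given as GI50. TGI denotes the concentration required for complete inhibition of growth.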

Tested on: NCI-H322M lung
Test: inhibition of tumour cell growth, NCI panel, 48 h

SMILES	TGI	GI50
O=[N+]([O-])c1ccc(/C=C/c2ccc(N=Nc3ccc(/C=C/c4ccc([N+](=O)[O-])cc4S(=O)(=O)O)c(S(=O)(=O)O)c3)cc2S(=O)(=O)O)c(S(=O)(=O)O)c1	> 100 µM	
OCCSCCCSCCO	> 100 µM	
O=C(O)c1cc2ccccc2c(N=Nc2c([N+](=O)[O-])cc([N+](=O)[O-])cc2S(=O)(=O)O)c1O	> 100 µM	
CC1C=C(OC(=O)c2ccccc2)C(=O)C(n2cc(F)c(=O)n(C(=O)c3ccccc3)c2=O)O1 (centres undefined)	> 100 µM	
COc1ccc(CNc2nc(NCc3ccc(OC)cc3)nc(Nc3ccccc3)n2)cc1	> 100 µM	
COc1cc2c3c(n(CCCN)c(=O)c2cc1OC)-c1ccc(F)cc1C3=O	21.1 µM	7.65 µM
COC(=O)[C@H]1[C@H](C(=O)OC)[C@@H](C)c2c(ccc3c2[nH]c2ccccc23)[C@@H]1C	> 100 µM	
Cn1c(-c2csc(-c3ccc(Cl)cc3)n2)n[nH]c1=S	> 100 µM	
CC(C)(C)c1cc(-c2ccc(-c3cc(C(C)(C)C)c(O)c(C(C)(C)C)c3)cc2)cc(C(C)(C)C)c1O	> 100 µM	
COC(=O)NCCc1[nH]nc2c1C(=O)C=C(OC)C2=O	> 100 µM	
Nc1c(C(=O)c2cccc(OCCN3CCOCC3)c2)cnn1-c1ccc(F)cc1	> 25 µM	> 25 µM
O=c1c2cc(Br)ccc2oc2nc3n(c(=O)c12)CCCS3	> 100 µM	
CN(C)CCNC(=O)c1cccc2cc3ccccc3nc12	17.5 µM	2.93 µM
CCCCCCCCCCCCCCCCCCNc1ccn(C2OC(COP(=O)(O)O)C(O)C2O)c(=O)n1 (centres undefined)	> 100 µM	
COC(=O)C1=NN2c3ccccc3C(=O)OCCC2C1 (centres undefined)	> 100 µM	
O=C1c2cccnc2-c2nc(/C=C/c3ccccc3)cc3c2c1nc1ccccc13	5.41 µM	2.15 µM
C=CCNC1=C(C(=O)OCC)C(=O)CO1	> 100 µM	
C=C1C(=O)O[C@H]2[C@H]1CC/C(COC(=O)C(=O)c1c[nH]c3ccc(OC)cc13)=C\CC[C@@]1(C)O[C@@H]21	13.3 µM	7.53 µM
C/C=C(\C)C(=O)O[C@@H]1C(O)[C@H]2OC(COC(=O)CCC(=O)CCCCCC[C@H](CCCCC)O[C@@H]3OC(C)[C@H](OC(C)=O)C(O)[C@H]3O2)[C@H]1OC(=O)/C=C/c1ccccc1 (some centres undefined)	> 51.8 µM	0.282 µM
O=[N+]([O-])CC(SCc1ccccc1)c1ccc2c(c1)OCO2 (centres undefined)	33.1 µM	
Cc1c(O)c(=O)ccn1C1OC(CO)C(O)C1O (centres undefined)	> 100 µM	
CC(CN)[C@@H]1CC[C@]2(CO)CC[C@]3(C)[C@H](CC[C@@H]4[C@@]5(C)CCC(NCCO)C(C)(C)[C@@H]5CC[C@]43C)[C@@H]12 (some centres undefined)	6.38 µM	2.4 µM

SMILES	TGI	GI50
CC(C)(C)OC(=O)NCCCCCCCCn1c2c(c3ccccc3c1=O)C(=O)c1ccccc1-2	> 50 µM	> 21.6 µM
O=c1nc2n(cc1/C=C\Br)C1CC(O)C(CO2)O1 (centres undefined)	> 100 µM	
CCOC(OCC)C(CC)[Se]c1ccccc1[N+](=O)[O-] (centres undefined)	> 30.3 µM	
Cc1ccc(S(=O)(=O)Oc2ccc3c4c(c(=O)oc3c2)CCCCC4)cc1	> 100 µM	> 100 µM
CS(=O)(=O)N1CCN(Cc2cc3nc(-c4cccc5[nH]ncc45)nc(N4CCOCC4)c3s2)CC1 (tested in a mixture with another compound)	3.41 µM	0.209 µM
O=C1C(Cl)=C(Nc2ccc3cn[nH]c3c2)C(=O)c2ccccc21	8.62 µM	2.21 µM
Nc1ccn([C@H]2C[C@@H](O)[C@@H](CO)S2)c(=O)n1	> 100 µM	> 100 µM
NC(=O)c1csc(C2C=CC(CO)O2)n1 (centres undefined)	> 100 µM	
CCCn1cnc2c(NN=O)ncnc21	> 100 µM	
Cc1ccc(/C=C2\NC(=S)N(CN3CCOCC3)C2=O)cc1	> 100 µM	
CC1(C)OCC2OC3([C@H](O)CCO)OC(C)(C)OC3C2O1 (some centres undefined)	> 100 µM	
CCCCCCCCCCCCCC/C(C(=O)OC)=C(/O)C(=O)OCC	> 100 µM	
CC1=C/C(=N/N2C(=O)/C(=C/c3ccc(Cl)cc3)N=C2c2ccccc2)CC(C)(C)C1	> 100 µM	
COc1cc2c3c(n(CCCN4CCN(C)CC4)c(=O)c2cc1OC)-c1cc2c(cc1C3=O)OCO2	33.4 µM	15.6 µM
O=C1Oc2ccccc2C(=O)/C1=C/N1C(=O)/C(=C/c2ccc([N+](=O)[O-])cc2)SC1=S	> 100 µM	
Cc1ccc(NS(=O)(=O)c2cc(C(C)(C)C)ccc2OCCOCCOCCOc2ccc(C(C)(C)C)cc2S(=O)(=O)Nc2ccc(C)cc2)cc1	> 100 µM	
CN(C)c1ccc(/C=C/c2sc3ccc4ccccc4c3[n+]2C)cc1	2.5 µM	0.436 µM
CCCCCCCCCCCCCC1=NCC[N+]1(CCO)Cc1ccccc1 (centres undefined)	3.34 µM	1.68 µM
N=c1c2c3n(c4c(=O)n(-c5ccccc5)c(=S)n(c(=O)n1-c1ccccc1)c24)CCCCC3	> 100 µM	
Cn1c(N2CCCC2)c(C=O)c(=O)n(C)c1=O	> 100 µM	
COc1ccc(C(=O)N2CCN(c3ccc4c(c3)OCC(=O)N4)CC2)cc1	> 100 µM	
NC(=O)c1[nH]nc(C2OC(CO)C(O)C2O)c1O (centres undefined)	3720 µM	

SMILES	TGI	GI50
COC(=O)c1ccccc1NC(=O)C(=O)CC(=O)c1ccccc1NC1=CC(=O)C(=O)c2ccccc21	35.4 µM	
CC1=C(C(=O)OCCO[N+](=O)[O-])C(c2ccccc2C(F)(F)F)C(C(=O)OC(C)C)=C(C)N1 (centres undefined)	> 100 µM	
Cc1ccc(S(=O)(=O)N2CCC3(C(/C=C/c4ccccc4)=Nc4ccccc43)C2c2ccccc2)cc1 (centres undefined)	> 100 µM	
COC(=O)C(NC(=O)CNC(=O)CSc1nnc(COc2ccc(Cl)cc2)n1-c1ccccc1)C(C)C (centres undefined)	36.6 µM	
CCCCCCOc1ccc(NC2=C(Cl)C(=O)c3cccnc3C2=O)cc1	6.49 µM	
COc1cccc(NCC(=O)Nn2c(-c3ccccc3)nc3ccccc3c2=O)c1	> 100 µM	
CCOC(=O)CCC(C(=O)OCC)n1nc2ccc(Nc3c(C)[n+]([O-])c4cc(Cl)ccc4[n+]3[O-])cc2n1 (centres undefined)	> 100 µM	
CC1=C(C(=O)Nc2ccccc2C)C(c2ccc([N+](=O)[O-])cc2)C(C(=O)Nc2ccccc2C)=C(C)N1	> 100 µM	
COc1ccc(/C=C2\CN(C)CC3=C2OC(N)=C(C#N)C3c2ccc(OC)cc2)cc1 (centres undefined)	> 100 µM	
O=C(O)c1c(-c2c3ccc(=O)cc-3oc3cc(O)ccc23)cc2ccccc2c1-c1ccccc1	> 100 µM	
N#C/C(=C\c1ccc(Br)cc1)n1nnc2cccc(F)c21	3.29 µM	1.7 µM
O=C(Oc1ccc([N+](=O)[O-])cc1)N1CCN(Cc2cccc(Oc3ccccc3)c2)CC1	> 100 µM	> 100 µM
COc1cc(NN=C(c2ccc(O)cc2)c2ccc(O)cc2)c([N+](=O)[O-])cc1[N+](=O)[O-]	25.4 µM	11.6 µM
CCSc1nc2sc(C)c(C)c2c(=O)n1-c1ccc(C(=O)O)cc1	> 100 µM	
N#Cc1c(=O)c2cc([N+](=O)[O-])ccc2n2c1[nH]c1ccccc12	> 80.9 µM	
Oc1[nH]c2ccccc2c1N=NC1=NCCCCN1	> 100 µM	
COC(=O)c1ccc(=O)c2nc3/c(=C/O)c(O)cc(=O)c3[nH]c12	18.8 µM and 17.9 µM	1.27 µM
OCCCSc1ccccc1SCCCO	> 100 µM	
CCOP(=O)(CC(=O)C1=C(O)C(CCCNC(=O)OC(C)(C)C)N(Cc2ccc(OC)c(OC)c2)C1=O)OCC (centres undefined)	> 100 µM	
CC12O[C@H](c3ccccc3)[C@H](c3ccccc3)N1C(=O)C1(C(=O)OCc3ccccc3)CC12 (some centres undefined)	> 100 µM	
COc1nn(Cc2ccccc2F)c2ccc([N+](=O)[O-])cc12	> 100 µM	
